Among the data in PubChem BioAssay (NCI) are GI50 and TGI values, retold here.

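Tested at 5 concentrations; 48 h exposure; 96-well plates; endpoints linearly interpolated, else capped at highest concentration. GI50 marks 50% less growth. TGI is the concentration that stops growth completely.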 A value given as a limit tells only on which side of the number the result lay.

This test deals with NCI-H322M lung. Nature of the test: DTP human tumour cell line panel, 48 h.

For `N/C(=N\c1nc2ccccc2s1)NC(=O)Nc1ccccc1[N+](=O)[O-]`, the GI50 was 0.479 µM and the TGI was 18.1 µM.
The like results for `COc1cc(/C=C/C(=O)c2ccc(NC(=O)CN3C(=O)NC(C)(c4ccccc4)C3=O)cc2)cc(OC)c1OC` (configuration not stated) were, in that order, 15.3 µM and 69.3 µM.
The like results for `COc1cc(/C=N/NC(=O)c2ccc3nc(-c4ccc(Cl)cc4)[nH]c3c2)cc(OC)c1OC` were, in that order, 8.29 µM and 33.1 µM.
The like results for `Cn1cc(-c2cc(N)n3nc(-c4c[nH]c5ccccc45)cc3n2)c2cc(F)ccc21` were, in that order, 2.46 µM and 8.24 µM.
In the case of `O=C([Se]C1C=CCCC1)c1ccc(C(=O)[Se]C2C=CCCC2)s1` (configuration not stated), the GI50 was 0.409 µM and the TGI worked out at 4.03 µM.
The like results for `COc1ccc(C(=O)/C=C/c2ccc(OCc3ccc(F)cc3)c(OC)c2)cc1OC` were, in that order, 3.48 µM and above 100 µM.

Broadly, the GI50 is the concentration giving 50% growth inhibition. In general, TGI refers to the concentration giving total growth inhibition. Higher therefore signals lower sensitivity of the cells.
